# According to the supplement of paper PMC8728848:
# The other results are listed elsewhere or left out.
# Assays:
# Assay in all cases: glycan array binding signal (z-score within array); higher = stronger binding
# Settings in all cases: glycan notation: IUPAC condensed, linker removed
# [1] = molecular target: Neu5Ac(a2-3)Gal(b1-4)GlcNAc
# Method in brief: (§1)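 The binding signal is a Z-score computed within each array and averaged over linkers. Arrays of the same protein sequence at different concentrations or buffers were also averaged together. Data originate from 3228 arrays in the Consortium for Functional Glycomics database, kept only where the protein sequence was available.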
# [2] = molecular target: Neu5Ac(a2-3)Gal(b1-4)GlcNAc(b1-3)Gal(b1-4)GlcNAc
# Method in brief: as §1
# [3] = molecular target: Neu5Ac(a2-3)Gal(b1-4)GlcNAc(b1-3)Gal(b1-4)GlcNAc(b1-3)Gal(b1-4)GlcNAc
# Method in brief: as §1
# [4] = molecular target: Neu5Ac(a2-3)Gal(b1-4)GlcNAc(b1-3)Gal(b1-4)[Fuc(a1-3)]GlcNAc
# Method in brief: as §1
# [5] = molecular target: Neu5Ac(a2-3)Gal(b1-4)GlcNAc6S
# Method in brief: as §1
# [6] = molecular target: Neu5Ac(a2-3)Gal(b1-4)[Fuc(a1-3)]GlcNAc
# Method in brief: as §1
# [7] = molecular target: Neu5Ac(a2-3)Gal(b1-4)[Fuc(a1-3)]GlcNAc(b1-3)Gal
# Method in brief: as §1
# [8] = molecular target: Neu5Ac(a2-3)Gal(b1-4)[Fuc(a1-3)]GlcNAc(b1-3)Gal(b1-4)GlcNAc
# Method in brief: as §1
# [9] = molecular target: Neu5Ac(a2-3)Gal(b1-4)[Fuc(a1-3)]GlcNAc(b1-3)Gal(b1-4)[Fuc(a1-3)]GlcNAc(b1-3)Gal(b1-4)[Fuc(a1-3)]GlcNAc
# Method in brief: as §1
# [10] = molecular target: Neu5Ac(a2-3)Gal(b1-4)[Fuc(a1-3)]GlcNAc6S
# Method in brief: as §1
# [11] = molecular target: Neu5Ac(a2-3)Gal6S(b1-4)GlcNAc
# Method in brief: as §1
# [12] = molecular target: Neu5Ac(a2-3)Gal6S(b1-4)[Fuc(a1-3)]GlcNAc
# Method in brief: as §1
# Neu5Ac(a2-3)GalNAc = molecular target: Neu5Ac(a2-3)GalNAc
# Method in brief: as §1
# [13] = molecular target: Neu5Ac(a2-3)GalNAc(b1-4)GlcNAc
# Method in brief: as §1
# [14] = molecular target: Neu5Ac(a2-3)[GalNAc(b1-4)]Gal(b1-4)Glc
# Method in brief: as §1
# [15] = molecular target: Neu5Ac(a2-3)[GalNAc(b1-4)]Gal(b1-4)GlcNAc
# Method in brief: as §1
# [16] = molecular target: Neu5Ac(a2-3)[Neu5Ac(a2-6)]GalNAc
# Method in brief: as §1
# [17] = molecular target: Neu5Ac(a2-6)Gal(b1-4)GlcNAc
# Method in brief: as §1
# [18] = molecular target: Neu5Ac(a2-6)Gal(b1-4)GlcNAc(b1-2)Man(a1-3)[Neu5Ac(a2-6)Gal(b1-4)GlcNAc(b1-2)Man(a1-6)]Man(b1-4)GlcNAc(b1-4)GlcNAc
# Method in brief: as §1
# [19] = molecular target: Neu5Ac(a2-6)Gal(b1-4)GlcNAc(b1-3)Gal(b1-4)GlcNAc
# Method in brief: as §1
# [20] = molecular target: Neu5Ac(a2-6)Gal(b1-4)GlcNAc(b1-3)Gal(b1-4)[Fuc(a1-3)]GlcNAc(b1-3)Gal(b1-4)[Fuc(a1-3)]GlcNAc
# Method in brief: as §1
# [21] = molecular target: Neu5Ac(a2-6)Gal(b1-4)GlcNAc6S
# Method in brief: as §1
# Neu5Ac(a2-6)GalNAc = molecular target: Neu5Ac(a2-6)GalNAc
# Method in brief: as §1
# [22] = molecular target: Neu5Ac(a2-6)GalNAc(b1-4)GlcNAc
# Method in brief: as §1
# Neu5Ac(a2-8)Neu5Ac = molecular target: Neu5Ac(a2-8)Neu5Ac
# Method in brief: as §1
# [23] = molecular target: Neu5Ac(a2-8)Neu5Ac(a2-3)Gal(b1-4)Glc
# Method in brief: as §1
# [24] = molecular target: Neu5Ac(a2-8)Neu5Ac(a2-3)[GalNAc(b1-4)]Gal(b1-4)Glc
# Method in brief: as §1
# [25] = molecular target: Neu5Ac(a2-8)Neu5Ac(a2-8)Neu5Ac
# Method in brief: as §1
# [26] = molecular target: Neu5Ac(a2-8)Neu5Ac(a2-8)Neu5Ac(a2-3)Gal(b1-4)Glc
# Method in brief: as §1
# [27] = molecular target: Neu5Ac(a2-8)Neu5Ac(a2-8)Neu5Ac(a2-3)[GalNAc(b1-4)]Gal(b1-4)Glc
# Method in brief: as §1
# [28] = molecular target: Neu5Ac(a2-8)Neu5Ac(a2-8)Neu5Ac(a2-8)Neu5Ac(a2-3)[GalNAc(b1-4)]Gal(b1-4)Glc
# Method in brief: as §1
# [29] = molecular target: Neu5Ac9Ac(a2-6)Gal(b1-4)GlcNAc
# Method in brief: as §1
# [30] = molecular target: Neu5Gc(a2-3)Gal(b1-3)GlcNAc
# Method in brief: as §1
# [31] = molecular target: Neu5Gc(a2-3)Gal(b1-3)[Fuc(a1-4)]GlcNAc
# Method in brief: as §1
# Neu5Gc(a2-3)Gal(b1-4)Glc = molecular target: Neu5Gc(a2-3)Gal(b1-4)Glc
# Method in brief: as §1
# [32] = molecular target: Neu5Gc(a2-3)Gal(b1-4)GlcNAc
# Method in brief: as §1
# [33] = molecular target: Neu5Gc(a2-3)Gal(b1-4)[Fuc(a1-4)]GlcNAc
# Method in brief: as §1
# [34] = molecular target: Neu5Gc(a2-6)Gal(b1-4)GlcNAc
# Method in brief: as §1
# Neu5Gc(a2-6)GalNAc = molecular target: Neu5Gc(a2-6)GalNAc
# Method in brief: as §1
binder,measurement,setting,value
7WC (Trifolium repens) (protein) MGTITSYAVVFDAGSTGSRVHVYHFDQNLDLLHIGKDVEFYNKIQPGLSAYADNPEQAAKSLIPLLEQAENVVPEDFHSKTPIRLGATAGLRLLDGDASERILQAVRDMLNNKSTFNVQPDAVSIIDGTQEGSYLWVTINYVLGNLGKRFTNTVGVIDLGGGSVQMAYAVSKKTARNAPKVTDGEDPYIKKIVLKGKPYDLYVHSYLHFGREASRAEILKVTHGSASPCILAGFDGIYTYSGEEFKASAPTSGANFDKCKKIIQKALKLDYPCPYQNCTFGGIWNGGGGSGQKKLFAASSFFYLPQDVGMVDPNKSNLKLRPVDLENKAKIVCTLNVEDVKSAYPLLEKFNIVPYACMDLIYQYELLVDGFGLDPLQEITAGEKIEYQEALVDAAWALGNAVEAVLLLPKFERLMYFVVEHHHHHH,glycan array binding signal (z-score),[1],-0.545
same,glycan array binding signal (z-score),[2],-0.301
same,glycan array binding signal (z-score),[3],-0.486
same,glycan array binding signal (z-score),[4],-0.305
same,glycan array binding signal (z-score),[5],-0.474
same,glycan array binding signal (z-score),[6],-0.477
same,glycan array binding signal (z-score),[7],-0.548
same,glycan array binding signal (z-score),[8],-0.241
same,glycan array binding signal (z-score),[9],2.57
same,glycan array binding signal (z-score),[10],-0.541
same,glycan array binding signal (z-score),[11],-0.463
same,glycan array binding signal (z-score),[12],-0.54
same,glycan array binding signal (z-score),Neu5Ac(a2-3)GalNAc,-0.224
same,glycan array binding signal (z-score),[13],-0.32
same,glycan array binding signal (z-score),[14],-0.564
same,glycan array binding signal (z-score),[15],-0.316
same,glycan array binding signal (z-score),[16],-0.542
same,glycan array binding signal (z-score),[17],-0.295
same,glycan array binding signal (z-score),[18],-0.511
same,glycan array binding signal (z-score),[19],-0.502
same,glycan array binding signal (z-score),[20],-0.29
same,glycan array binding signal (z-score),[21],-0.46
same,glycan array binding signal (z-score),Neu5Ac(a2-6)GalNAc,-0.153
same,glycan array binding signal (z-score),[22],-0.274
same,glycan array binding signal (z-score),Neu5Ac(a2-8)Neu5Ac,-0.489
same,glycan array binding signal (z-score),[23],-0.511
same,glycan array binding signal (z-score),[24],-0.463
same,glycan array binding signal (z-score),[25],-0.529
same,glycan array binding signal (z-score),[26],-0.355
same,glycan array binding signal (z-score),[27],-0.48
same,glycan array binding signal (z-score),[28],-0.429
same,glycan array binding signal (z-score),[29],-0.491
same,glycan array binding signal (z-score),[30],-0.48
same,glycan array binding signal (z-score),[31],-0.369
same,glycan array binding signal (z-score),Neu5Gc(a2-3)Gal(b1-4)Glc,-0.385
same,glycan array binding signal (z-score),[32],-0.512
same,glycan array binding signal (z-score),[33],-0.456
same,glycan array binding signal (z-score),[34],-0.476
same,glycan array binding signal (z-score),Neu5Gc(a2-6)GalNAc,-0.16
